Drawing on the supplement of paper PMC9927326, this text covers MIC for 16 test systems.

Usually MIC stands for the lowest concentration that inhibits growth of the organism.

What all share (test): CLSI broth microdilution.
Background: Broth dilution looks for growth in wells or tubes with falling amounts of substance.

Compound in test [1]: OC(Cn1cncn1)(Cn1cncn1)c1ccc(F)cc1F [fluconazole]
Compound in test [2]: CCCCCOc1ccc(-c2cc(-c3ccc(C(=O)N[C@H]4C[C@@H](O)[C@@H](O)NC(=O)[C@@H]5[C@@H](O)[C@@H](C)CN5C(=O)[C@H]([C@H](O)CC(N)=O)NC(=O)[C@H]([C@H](O)[C@@H](O)c5ccc(O)c(OS(=O)(=O)O)c5)NC(=O)[C@@H]5C[C@@H](O)CN5C(=O)[C@H]([C@@H](C)O)NC4=O)cc3)no2)cc1 [micafungin]
Compound in test [3]: CC[C@H](C)C[C@H](C)CCCCCCCCC(=O)N[C@H]1C[C@@H](O)[C@@H](NCCN)NC(=O)[C@@H]2[C@@H](O)CCN2C(=O)[C@H]([C@H](O)CCN)NC(=O)[C@H]([C@H](O)[C@@H](O)c2ccc(O)cc2)NC(=O)[C@@H]2C[C@@H](O)CN2C(=O)[C@H]([C@@H](C)O)NC1=O [caspofungin]
Compound in test [4]: Nc1[nH]c(=O)ncc1F [flucytosine]
Compound in test [5]: CC[C@@H]([C@H](C)O)n1ncn(-c2ccc(N3CCN(c4ccc(OC[C@@H]5CO[C@@](Cn6cncn6)(c6ccc(F)cc6F)C5)cc4)CC3)cc2)c1=O [posaconazole]
Compound in test [6]: C[C@@H](c1ncncc1F)[C@](O)(Cn1cncn1)c1ccc(F)cc1F [voriconazole]
Compound in test [7]: CCCCCOc1ccc(-c2ccc(-c3ccc(C(=O)N[C@H]4C[C@@H](O)[C@@H](O)NC(=O)[C@@H]5[C@@H](O)[C@@H](C)CN5C(=O)[C@H]([C@@H](C)O)NC(=O)[C@H]([C@H](O)[C@@H](O)c5ccc(O)cc5)NC(=O)[C@@H]5C[C@@H](O)CN5C(=O)[C@H]([C@@H](C)O)NC4=O)cc3)cc2)cc1 [anidulafungin]
Compound in test [8]: C[C@@H]1[C@H](O)[C@@H](C)/C=C/C=C/C=C/C=C/C=C/C=C/C=C/[C@H](O[C@@H]2O[C@H](C)[C@@H](O)[C@H](N)[C@@H]2O)C[C@@H]2O[C@](O)(C[C@@H](O)C[C@@H](O)[C@H](O)CC[C@@H](O)C[C@@H](O)CC(=O)O[C@H]1C)C[C@H](O)[C@H]2C(=O)O [amphotericin B]
Compound in test [9]: CCC(C)n1ncn(-c2ccc(N3CCN(c4ccc(OCC5COC(Cn6cncn6)(c6ccc(Cl)cc6Cl)O5)cc4)CC3)cc2)c1=O [itraconazole]

MIC of clinical C. albicans isolates, CLSI broth microdilution (ranges and time not stated); higher = less susceptible. Call: susceptible or wild type [S] / resistant or non-wild type [R] by CLSI breakpoints or epidemiological cut-offs; intermediate and dose-dependent carry no call here (the paper groups them with resistant). '<=' and '>=' mark each drug's lowest and highest value, inferred; the source prints them plain. Isolates are numbered anew.

Take “Candida albicans isolate 278 (Erg11p: V488I,E266D, Fur1p: WT, Tac1p: N896S,I895T)”: the MIC in test [1] was 0.5 mg/L [S]; in [2] it was at most 0.008 mg/L [S]; in test [3] it was 0.06 mg/L [S]; in test [4], at most 0.06 mg/L [S]; in test [5], 0.03 mg/L [S]; in test [6] it was 0.015 mg/L [S]. Also, the results for the MIC in test [7], in [8] and in test [9] were 0.12 mg/L [S], 0.5 mg/L [S] and 0.06 mg/L [S], respectively.
Take “Candida albicans isolate 279 (Erg11p: V437I,E266D, Fur1p: WT, Tac1p: F189S,N174D,M170I,A90T,K87N)”: the MIC in test [1] is 0.25 mg/L [S]; in test [2], 0.03 mg/L [S]; in test [3] it was 0.12 mg/L [S]; in test [4] it was at most 0.06 mg/L [S]; in test [5], 0.03 mg/L [S]; in test [6], at most 0.008 mg/L [S]. The MIC amounted to 0.12 mg/L [S] in test [7], 0.5 mg/L [S] in test [8] and 0.06 mg/L [S] in test [9].
Regarding “Candida albicans isolate 280 (Erg11p: E266D, Fur1p: WT, Tac1p: T885K,I558V,A430V,A377V,F189S,N174D,M170I,M170V,K87N)”, the MIC in test [1] is 0.25 mg/L [S]; in test [2], 0.015 mg/L [S]; in test [3], 0.03 mg/L [S]; in test [4], at most 0.06 mg/L [S]; in test [5], 0.015 mg/L [S]; in test [6], at most 0.008 mg/L [S]. The MIC in [7] was at most 0.015 mg/L [S]; in [8], 0.25 mg/L [S]; in test [9], at most 0.015 mg/L [S].
For “Candida albicans isolate 281 (Erg11p: WT, Fur1p: WT, Tac1p: N896S,C858Y,N823K,I558V,F189S)”, the MIC in test [1] was 0.5 mg/L [S]; in [2], 0.015 mg/L [S]; in [3], 0.03 mg/L [S]; in test [4] it was at most 0.06 mg/L [S]; in test [5], 0.03 mg/L [S]; in test [6], at most 0.008 mg/L [S]. Also, the values for the MIC in test [7], in test [8] and in test [9] were 0.03 mg/L [S], 0.5 mg/L [S] and 0.06 mg/L [S], respectively.
For “Candida albicans isolate 282 (Erg11p: WT, Fur1p: WT, Tac1p: I558V,A377V,F189S,N174D,M170I,K87N)”, the MIC was at most 0.12 mg/L [S] in [1]; 0.015 mg/L [S] in [2]; 0.03 mg/L [S] in [3]; at most 0.06 mg/L [S] in [4]; 0.015 mg/L [S] in [5]; at most 0.008 mg/L [S] in [6]. Further, the MIC in test [7] is 0.06 mg/L [S]; in test [8] it was 0.25 mg/L [S]; in test [9], at most 0.015 mg/L [S].
As to “Candida albicans isolate 283 (Erg11p: WT, Fur1p: WT, Tac1p: N896S)”, the MIC in test [1] is 32 mg/L [R]; in [2], 1 mg/L [R]; in test [3] it was 0.5 µg/mL; in test [4] it was at most 0.06 mg/L [S]; in test [5], 0.06 mg/L [S]; in [6] it was 1 mg/L [R]. Further, the results for the MIC in test [7], in test [8] and in test [9] were 1 mg/L [R], 2 mg/L [S] and 0.12 mg/L [S], respectively.
Take “Candida albicans isolate 284 (Erg11p: WT, Fur1p: WT, Tac1p: WT)”: the MIC in test [1] is 0.5 mg/L [S]; in test [2], 0.015 mg/L [S]; in test [3], 0.06 mg/L [S]; in test [4] it was at most 0.06 mg/L [S]; in [5] it was 0.015 mg/L [S]; in test [6], at most 0.008 mg/L [S]. In addition, the MIC in test [7] is 0.12 mg/L [S]; in [8], 0.5 mg/L [S]; in test [9], 0.03 mg/L [S].
Take “Candida albicans isolate 285 (Erg11p: WT, Fur1p: WT, Tac1p: I558V,A377V,F189S,N174D,M170I,K87N)”: the minimum inhibitory concentration (MIC) in [1] is 0.25 mg/L [S]; in [2], 0.015 mg/L [S]; in test [3], 0.03 mg/L [S]; in [4], at most 0.06 mg/L [S]; in test [5], at most 0.008 mg/L [S]; in test [6], at most 0.008 mg/L [S]. Further, the figures for the MIC in test [7], in test [8] and in test [9] were at most 0.015 mg/L [S], 0.5 mg/L [S] and at most 0.015 mg/L [S], respectively.
As to “Candida albicans isolate 286 (Erg11p: Y257H,A114S, Fur1p: R101C, Tac1p: A736V)”, the MIC in test [1] is 8 mg/L [R]; in [2] it was at most 0.008 mg/L [S]; in test [3], 0.015 mg/L [S]; in [4], 0.25 mg/L [S]; in test [5] it was 0.25 mg/L [R]; in test [6], 0.5 µg/mL. In addition, the MIC in [7] is at most 0.015 mg/L [S]; in test [8] it was 1 mg/L [S]; in [9], 0.25 mg/L [R].
As to “Candida albicans isolate 287 (Erg11p: V488I,E266D, Fur1p: WT, Tac1p: N896S,I558V,A377V,F189S,N174D,M170I,K87N)”, the MIC in [1] is 0.5 mg/L [S]; in test [2], at most 0.008 mg/L [S]; in [3], 0.03 mg/L [S]; in [4], at most 0.06 mg/L [S]; in test [5], 0.03 mg/L [S]; in test [6], at most 0.008 mg/L [S]. Moreover, the MIC in test [7] turned out to be 0.12 mg/L [S]; in test [8] it was 0.5 mg/L [S]; in test [9], 0.06 mg/L [S].
“Candida albicans isolate 288 (Erg11p: V488I,E266D, Fur1p: WT, Tac1p: N896S)”: the MIC in [1] is 0.25 mg/L [S]; in test [2] it was at most 0.008 mg/L [S]; in [3], 0.03 mg/L [S]; in test [4], at most 0.06 mg/L [S]; in [5], at most 0.008 mg/L [S]; in [6], at most 0.008 mg/L [S]. The values for the MIC in test [7], in [8] and in test [9] were at most 0.015 mg/L [S], 0.5 mg/L [S] and at most 0.015 mg/L [S], respectively.
Take “Candida albicans isolate 289 (Erg11p: WT, Fur1p: WT, Tac1p: N896S)”: the MIC is 0.5 mg/L [S] in [1]; at most 0.008 mg/L [S] in test [2]; 0.03 mg/L [S] in [3]; at most 0.06 mg/L [S] in [4]; 0.015 mg/L [S] in [5]; at most 0.008 mg/L [S] in test [6]. Moreover, the MIC in test [7] is at most 0.015 mg/L [S]; in test [8] it was 0.25 mg/L [S]; in test [9], 0.03 mg/L [S].
For the test system “Candida albicans isolate 290 (Erg11p: WT, Fur1p: WT, Tac1p: WT)”, the MIC in test [1] was 0.5 mg/L [S]; in [2], 0.015 mg/L [S]; in test [3], 0.03 mg/L [S]; in [4], at most 0.06 mg/L [S]; in test [5] it was 0.03 mg/L [S]; in [6], at most 0.008 mg/L [S]. Further, the MIC in test [7] was determined as 0.03 mg/L [S]; in test [8] it was 0.5 mg/L [S]; in test [9], 0.03 mg/L [S].
“Candida albicans isolate 291 (Erg11p: D153E, Fur1p: WT, Tac1p: WT)”: the MIC was 0.25 mg/L [S] in test [1]; 0.015 mg/L [S] in test [2]; 0.03 mg/L [S] in test [3]; at most 0.06 mg/L [S] in [4]; 0.03 mg/L [S] in [5]; at most 0.008 mg/L [S] in test [6]. In addition, the MIC is at most 0.015 mg/L [S] in [7], 0.5 mg/L [S] in test [8] and 0.06 mg/L [S] in [9].
Take “Candida albicans isolate 292 (Erg11p: WT, Fur1p: WT, Tac1p: I558V,A377V,F189S,N174D,M170I,K87N)”: the MIC was 0.25 mg/L [S] in test [1]; 0.015 mg/L [S] in [2]; 0.03 mg/L [S] in test [3]; at most 0.06 mg/L [S] in test [4]; 0.015 mg/L [S] in test [5]; at most 0.008 mg/L [S] in test [6]. Further, the MIC in test [7] was at most 0.015 mg/L [S]; in test [8], 0.25 mg/L [S]; in test [9], at most 0.015 mg/L [S].
In the case of “Candida albicans isolate 293 (Erg11p: D153E, Fur1p: WT, Tac1p: N896S)”, the MIC in test [1] is 0.25 mg/L [S]; in [2] it was at most 0.008 mg/L [S]; in test [3], 0.03 mg/L [S]; in test [4], at most 0.06 mg/L [S]; in [5], 0.03 mg/L [S]; in [6], at most 0.008 mg/L [S]. In addition, the MIC stood at 0.06 mg/L [S] in [7], 0.5 mg/L [S] in [8] and 0.03 mg/L [S] in test [9].
